Reference: PubChem BioAssay (NCI)
Several values for one entry are separate records, joined by “and”; a condition that tells them apart may be missing. Equal entries are not always repeated.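 Values below derive from 48-hour exposures of cells grown in 96-well plates, with endpoints linearly interpolated between the two concentrations bracketing the appropriate inhibition level. Here, GI50 denotes the concentration required for 50% inhibition of growth. The concentration for full growth arrest is given as TGI.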 Peptide text beside a SMILES is read from it.

What follows are compounds tested on NCI-H322M lung (assay: growth of human tumour cells (NCI), 48 h).

Structure (SMILES) | TGI | GI50
C[C@]12CC[C@H]3[C@@H](CC[C@]4(O)C[C@@H](O)CC[C@]34C=O)[C@@]1(O)CC[C@@H]2C1=CC(=O)OC1 | 14.7 µM | 
CCC[CH2][Sn]1([CH2]CCC)[O]C(=O)c2cccc([N+](=O)[O-])c2C(=O)[O]1 | 2.87 µM | 1.49 µM
CCOC(=O)c1ccc2nc3n(c2c1)C(c1c(F)cccc1F)SC3 (stereo not given) | > 100 µM | 
CCCCCc1cc2cc3c(c(O)c2c(=O)[nH]1)C1(CCC3)C(=O)c2c(O)ccc(O)c2C1=O | > 100 µM | 
OC1OCC(COc2cc(Cl)c(Cl)cc2Cl)OC1O (stereo not given) | > 100 µM | 
COCC(C#N)NC1CC(OC2CC(O)(C(=O)CO)Cc3c(O)c4c(c(O)c32)C(=O)c2c(OC)cccc2C4=O)OC(C)C1O (stereo not given) | 2.97 µM | 
CCOC(=O)C1=C(Nc2ccc(OC)cc2)C(N)=NC1=N | > 100 µM | 4.66 µM
O=[N+]([O-])c1ccc2c(c1)C(N1CCN(CCO)CC1)Cc1ccc(F)cc1S2 (stereo not given) | 25.4 µM | 
CC(C)(C)OC(=O)N1C(=O)C2CCCC21 (stereo not given) | > 100 µM | 
C1=CC2C(C3CN(c4ccccc4)N=C13)C1C3C4C=CC21C=CC43 (stereo not given) | > 100 µM | 
Cc1cc(OCc2ccc(C(F)(F)F)cc2)c2c(c1)C(=O)C=C(NCCN1CCCC1)C2=O | 11.8 µM | 3.66 µM
C=CC(=O)N1C/C(=C\c2ccc(OC)cc2)C(=O)/C(=C/c2ccc(OC)cc2)C1 | 12.7 µM | 
N#CC1=C(O)NC(O)=C(C#N)C1c1c(Cl)cccc1Cl | > 100 µM | 
O=C1OC(OC/C(Br)=C(\Br)COC2OC(=O)C(Cl)=C2Cl)C(Cl)=C1Cl (stereo not given) | 33.9 µM | 
N#C/C(=C\c1ccc[nH]1)c1cc(-c2ccc(Cl)cc2)nn1-c1ccccc1 | > 100 µM | 3.51 µM
CC1CN(c2cc3c(cc2F)c(=O)c(C(=O)O)cn3-c2ccc(N3CCN(C)CC3)cn2)CC(C)N1 (stereo not given) | > 100 µM | 
O=S(=O)(O)c1ccc(O)c(N=Nc2c(O)ccc3ccccc23)c1 | > 100 µM | 
O=C1C(Cl)N(c2ccc([N+](=O)[O-])cc2)C1c1c[nH]c2ccccc12 (stereo not given) | > 100 µM | 
CC1=C(CCC(C)CO)O[C@H]2C[C@H]3[C@@H]4CC[C@H]5C[C@@H](O)CC[C@]5(C)[C@H]4CC(=O)[C@]3(C)[C@@H]12 (stereo not given in full) | 68.2 µM | 
CC1(C)CCC2=C(O1)c1ccccc1C(=Nc1ccc([N+](=O)[O-])cc1)C2=O | 30.4 µM | 
N#Cc1c(/C=C/c2ccccc2)c2c([nH]c1=S)CCCCC2 | > 100 µM | 
COC(=O)N[C@@H]1C[C@H]2CC[C@]1(O[Si](C(C)C)(C(C)C)C(C)C)C(=O)C2 | 34.1 µM | 
C=C1c2c(n(S(=O)(=O)c3ccccc3)c3ccccc23)[C@@]2(C(=O)OC)CC3C=CC2N1C3 | > 100 µM | 
CCOC(=O)c1sc2nc(SC)nc3c2c1NCN3C | > 100 µM | 
CC1(C)C2CC3C(C)(C2)C31c1cc(Cl)ccc1N (stereo not given) | 36.5 µM | 

Structure (SMILES) | TGI | GI50
COC(=O)Nc1nc2ccc(C(=O)c3cccc(I)c3)cc2[nH]1 | > 67.8 µM | 0.133 µM
CCC(=O)NC1=C(Cl)C(=O)C(NC(=O)CC)=C(Cl)C1=O | > 100 µM | > 100 µM
Cc1nnc(N/N=C/c2ccc([N+](=O)[O-])o2)[nH]c1=O | > 26.9 µM | 0.633 µM
CC(NNC(=S)N1CCN(c2ccccn2)CC1)c1nccc2ccccc12 (stereo not given) | 13.1 µM | 
O=C(Nc1ccc(Br)cc1)C(=O)C(C(=O)c1ccc(Cl)c(Cl)c1)C1OC(=O)c2ccccc21 (stereo not given) | 70.4 µM | 
Cn1nc(C(F)(F)F)cc1-c1cc(Cl)c(OCc2ccc(Cl)cc2)c(-c2ccc(Cl)c(C(F)(F)F)c2)c1O | 6.31 µM | 1.49 µM
CN1C(=O)N(C)C2C1NC(=S)N2/N=C/C=C/c1ccccc1[N+](=O)[O-] (stereo not given) | > 100 µM | 5.7 µM
NC(=Nc1ccccc1)N/N=C/c1c[nH]c2ccccc12 | 15.8 µM | 
CC(C)C[C@H](NC(=O)[C@H](CC(C)C)NC(=O)[C@@H](Cc1c[nH]c2ccccc12)NC(=O)[C@H](Cc1ccccc1)NC(=O)[C@@H](Cc1c[nH]c2ccccc12)NC(=O)[C@H](CCC(N)=O)NC(=O)[C@@H](CCC(N)=O)NC(=O)[C@@H]1CCCN1C(=O)[C@@H](CCCCN)NC(=O)[C@H]1CCCN1C(=O)[C@H](N)CCCN=C(N)N)C(N)=O (HELM PEPTIDE1{[dR].[dP].[dK].P.[dQ].Q.[dW].F.[dW].L.L.[am]}$$$$V2.0) | > 100 µM | 
CC1(C)CC(=O)c2c(N)n[nH]c2C1 | > 100 µM | 
C=CC1=C(C)C(/C=c2\[nH]/c(=C/c3[nH]c(CC4NC(=O)C(C)/C4=C\C)c(C)c3CCC(=O)O)c(CC(=O)O)c2C)=NC1=O (stereo not given) | > 100 µM | 
Cc1c(C(=O)Nc2ccc(N3C[C@@H](C)O[C@@H](C)C3)nc2)cccc1-c1ccc(OC(F)(F)F)cc1 | 40.6 µM and 39.6 µM | 11.6 µM and 12.6 µM
NS(=O)(=O)c1ccc(-n2nc3c(c2-c2cccs2)Cc2ccccc2-3)cc1 | 34.6 µM | 11.9 µM
NS(=O)(=O)c1nnc(NS(=O)(=O)c2cccc3cccnc23)s1 | > 100 µM | 
Cc1cnc2c(c1)C(=O)N(c1ccc(Oc3ccccc3)cc1)S2(=O)=O | > 100 µM | 
O=C1Sc2ccccc2C(=O)N2CCSC12 (stereo not given) | > 100 µM | 
Cc1nc(N)c(N2CCN(S(=O)(=O)N(Cc3ccccc3)Cc3ccccc3)CC2)c(=O)[nH]1 | 47.5 µM | 
COc1ccc(C2N(c3ccc(C)c(N=C=O)c3)C(=O)N3C(c4ccc(OC)cc4)N(c4ccc(C)c(N=C=O)c4)C(=O)N23)cc1 (stereo not given) | > 100 µM | 
COc1cc2[nH]c3c(c2cc1OC)CCN[C@@]31CC[C@@]2(CC3c4c(cc(OC)c(O)c42)CCN3C)C[C@@H]1OC (stereo not given in full) | > 100 µM | 
O=[N+]([O-])c1c(O)c2nonc2c2nn(-c3ccccc3)nc12 | > 100 µM | 
Cc1ccc(NC(=O)COc2ccc(Cl)cc2)cc1Cl | > 100 µM | 
COc1ccc(NC(=O)CSC(=O)c2ccccc2)c(SCCSSCCSc2cc(OC)ccc2NC(=O)CSC(=O)c2ccccc2)c1 | > 100 µM | 
CSc1ccc(N2C(=O)C3c4[nH]c5ccccc5c4C4CCC(C(C)(C)C)CC4C3C2=O)cc1 (stereo not given) | 67.1 µM | 
CCOP(=O)(OCC)/C(=C/n1c(=S)[nH]c2ccccc21)C(=O)OC | > 100 µM | 
